Measurements reported in PubChem BioAssay AID504333 (National Center for Advancing Translational Sciences (NCATS), 2011).
Out of some 360,000 compounds screened, about 16,000 (4.4%) were called active. Inconclusive results, whose numbers are uncertain, are shown with a selection of clear calls. Calls follow the shape of the dose curve; as a rule, active = well fitted inhibition curve with a large enough effect; inconclusive = small, poorly fitted or top-dose-only effect; inactive = no such curve, though single readings can be large or run the other way. Potencies beside an inconclusive call are fits to weak or partial responses and may not hold up.

Biological target: Bromodomain adjacent to zinc finger domain protein 2B (Homo sapiens) (UniProt Q9UIF8)
Assay: qHTS Assay for Inhibitors of BAZ2B; also: nearly all actives have a fitted effect of over 60% in size
Conditions: AlphaScreen BAZ2B-H3K14Ac peptide displacement; series mostly up to 114 µM
Summary of the method: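 In this displacement format the biotinylated H3(5-23) peptide acetylated at Lys14 serves as ligand at 50 nM, with BAZ2B at 50 nM in PBS pH 7.4 containing 0.01% Tween-20. Donor and acceptor beads are 10 ug/mL final.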
Potency is read from the fitted curve at half-maximal effect; tags tell the direction and shape of the fitted curve.

Sequence of UniProt Q9UIF8 (Q9UIF8 whole entry, looked up, the tested form may be a part): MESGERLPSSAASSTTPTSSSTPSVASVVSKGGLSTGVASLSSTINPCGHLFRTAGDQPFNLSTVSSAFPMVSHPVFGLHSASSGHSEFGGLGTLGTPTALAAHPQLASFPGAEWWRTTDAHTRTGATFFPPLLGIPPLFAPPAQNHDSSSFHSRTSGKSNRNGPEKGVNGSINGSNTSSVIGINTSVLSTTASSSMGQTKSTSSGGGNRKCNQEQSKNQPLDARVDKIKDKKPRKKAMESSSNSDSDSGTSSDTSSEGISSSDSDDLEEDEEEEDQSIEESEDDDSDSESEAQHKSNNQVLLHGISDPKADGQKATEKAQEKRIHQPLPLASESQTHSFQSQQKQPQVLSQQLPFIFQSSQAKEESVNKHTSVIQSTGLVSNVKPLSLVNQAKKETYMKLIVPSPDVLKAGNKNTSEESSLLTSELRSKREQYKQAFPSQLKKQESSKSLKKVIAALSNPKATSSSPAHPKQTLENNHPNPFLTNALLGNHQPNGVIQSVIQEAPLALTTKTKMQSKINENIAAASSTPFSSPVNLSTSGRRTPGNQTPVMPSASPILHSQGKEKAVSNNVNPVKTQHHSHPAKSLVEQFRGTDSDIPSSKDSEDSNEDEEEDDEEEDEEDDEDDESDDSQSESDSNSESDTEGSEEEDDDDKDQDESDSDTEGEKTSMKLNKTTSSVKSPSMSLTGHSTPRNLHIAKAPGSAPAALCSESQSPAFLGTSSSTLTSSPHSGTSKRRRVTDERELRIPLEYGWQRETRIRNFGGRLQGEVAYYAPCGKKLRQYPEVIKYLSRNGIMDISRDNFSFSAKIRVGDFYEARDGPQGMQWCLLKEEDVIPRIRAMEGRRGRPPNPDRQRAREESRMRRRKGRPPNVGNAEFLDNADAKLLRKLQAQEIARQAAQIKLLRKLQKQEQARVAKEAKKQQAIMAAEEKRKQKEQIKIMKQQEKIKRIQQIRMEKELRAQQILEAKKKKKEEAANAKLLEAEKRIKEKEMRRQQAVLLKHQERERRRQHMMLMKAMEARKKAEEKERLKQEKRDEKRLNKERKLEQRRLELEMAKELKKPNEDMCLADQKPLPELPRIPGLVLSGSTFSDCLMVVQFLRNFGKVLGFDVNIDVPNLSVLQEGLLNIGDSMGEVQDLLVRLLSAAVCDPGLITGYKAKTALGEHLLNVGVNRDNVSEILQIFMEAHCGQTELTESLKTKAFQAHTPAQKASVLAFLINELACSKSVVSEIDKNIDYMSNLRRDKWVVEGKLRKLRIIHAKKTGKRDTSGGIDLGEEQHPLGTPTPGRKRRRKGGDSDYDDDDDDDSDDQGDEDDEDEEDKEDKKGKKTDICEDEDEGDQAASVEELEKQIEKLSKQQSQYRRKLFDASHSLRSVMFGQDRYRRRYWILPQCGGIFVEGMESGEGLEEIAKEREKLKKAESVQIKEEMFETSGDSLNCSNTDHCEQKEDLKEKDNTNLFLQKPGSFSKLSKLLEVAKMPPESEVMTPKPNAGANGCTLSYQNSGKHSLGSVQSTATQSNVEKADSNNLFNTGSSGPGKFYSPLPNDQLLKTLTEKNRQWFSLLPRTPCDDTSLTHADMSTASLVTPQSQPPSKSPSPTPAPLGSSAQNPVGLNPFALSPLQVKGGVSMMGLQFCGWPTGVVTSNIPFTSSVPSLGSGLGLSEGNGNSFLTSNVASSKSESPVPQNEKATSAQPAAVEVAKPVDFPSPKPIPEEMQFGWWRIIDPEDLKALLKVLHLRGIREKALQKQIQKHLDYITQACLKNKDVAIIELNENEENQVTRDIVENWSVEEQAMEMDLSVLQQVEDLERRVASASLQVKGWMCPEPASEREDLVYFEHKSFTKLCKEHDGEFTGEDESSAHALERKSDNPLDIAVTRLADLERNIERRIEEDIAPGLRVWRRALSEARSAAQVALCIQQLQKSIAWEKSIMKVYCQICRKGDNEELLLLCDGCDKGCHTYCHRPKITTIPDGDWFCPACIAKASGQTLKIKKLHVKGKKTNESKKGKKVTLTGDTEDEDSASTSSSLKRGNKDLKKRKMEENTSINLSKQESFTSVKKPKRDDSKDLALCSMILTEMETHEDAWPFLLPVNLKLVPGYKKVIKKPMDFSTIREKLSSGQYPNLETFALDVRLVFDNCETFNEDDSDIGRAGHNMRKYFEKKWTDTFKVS

**Q.** Which Potency does the source give for O=C(O)Cn1c(=O)c2c3c(sc2n(Cc2ccccc2)c1=O)CCCC3 here?
**A.** active: 89.1 µM

**Q.** Cc1ccc(NC(=O)CN2C(=O)S/C(=C\c3cc(C)n(-c4ccc(C(=O)O)cc4)c3C)C2=O)cc1 was tested. Which Potency did it give?
**A.** active: 50.1 µM

**Q.** With CCCCCOCC1CC(C/C(C)=N/Nc2nc(-c3ccccc3)cs2)C(=O)O1 (stereo not given) as the compound, how does the Potency read?
**A.** inconclusive: 79.4 µM [inhibitor, single point]

**Q.** Which Potency does the source give for c1cncc(CNc2ncnc3ccc(-c4ccc5c(c4)OCO5)cc23)c1 here?
**A.** inconclusive: 44.7 µM [inhibitor, partial curve]

**Q.** For O=C(COc1ccc(/C=N/NC(=O)c2cc3ccccc3o2)cc1Cl)Nc1ccccc1, which Potency is on record?
**A.** inconclusive: 89.1 µM [inhibitor, single point]

**Q.** Which Potency does the source give for CC(C)C/C(O)=C/c1nc2cc(Cl)ccc2oc1=O here?
**A.** inconclusive: 79.4 µM [inhibitor, single point]

**Q.** Which Potency does the source give for COc1ccc(-c2ccc(NS(=O)(=O)c3cc([N+](=O)[O-])ccc3C)cc2)nn1 here?
**A.** inconclusive: 79.4 µM [inhibitor, single point]

**Q.** For O=C(NCCc1ccccc1)C(=O)NCC1OCCN1S(=O)(=O)c1ccccc1 (stereo not given), which Potency is on record?
**A.** inactive

**Q.** How did the Potency turn out when COc1cc(CNCc2ccccn2)ccc1OCc1c(Cl)cccc1Cl was run?
**A.** active: 89.1 µM

**Q.** For O=C(N/N=C\c1ccc(F)cc1)c1ccc(Cn2cc(Br)c([N+](=O)[O-])n2)o1, which Potency is on record?
**A.** inconclusive: 89.1 µM [inhibitor, single point]

**Q.** C/C(=N\NC(=O)c1cc2ccccc2cc1O)c1cccs1 was tested. Which Potency did it give?
**A.** inactive

**Q.** O=C1NC(c2ccc(-c3ccccc3[N+](=O)[O-])o2)C(C(=O)c2ccc(F)cc2)C(O)(C(F)(F)F)N1 (stereo not given) was tested. Which Potency did it give?
**A.** inconclusive: 70.8 µM [inhibitor, single point]

**Q.** Which Potency does the source give for CC1CCC(NC(=O)Cn2c(=O)oc3cc(S(=O)(=O)N4CCCC4)ccc32)CC1 (stereo not given) here?
**A.** inconclusive: 89.1 µM [inhibitor, single point]

**Q.** How did the Potency turn out when COc1ccc(-c2csc(Nc3ccccc3)[n+]2CC(O)c2ccc([N+](=O)[O-])cc2)cc1 (stereo not given) was run?
**A.** inconclusive: 3.98 µM [inhibitor, full curve]

**Q.** Which Potency does the source give for O=C1OCC(c2ccccc2)=C1c1ccc(S(=O)(=O)N2CCOCC2)s1 here?
**A.** inconclusive: 89.1 µM [inhibitor, single point]

**Q.** Which Potency does the source give for CCCCCc1cc(=O)oc2c(C(CCN3CCCC(C)C3)c3ccc(OC)cc3)c(OC)cc(OC)c12 (stereo not given) here?
**A.** inconclusive: 39.8 µM [inhibitor, partial curve]

**Q.** Which Potency does the source give for O=c1[nH]n2c(C(F)(F)F)cc(C3CC3)nc2c1N=Nc1ccccc1 here?
**A.** inconclusive: 79.4 µM [inhibitor, single point]

**Q.** Which Potency does the source give for CCOC(=O)c1cc(CC)sc1NC(=O)c1cc(OCC)c(OCC)c(OCC)c1 here?
**A.** inactive

**Q.** How did the Potency turn out when Cc1cc(C2N=C(N)Nc3nc4ccccc4n32)c(C)n1-c1ccccc1Cl (stereo not given) was run?
**A.** inconclusive: 50.1 µM [inhibitor, partial curve]

**Q.** C=CCc1cccc(/C=N/NC(=O)CNc2cccc3ccccc23)c1O was tested. Which Potency did it give?
**A.** inconclusive: 39.8 µM [inhibitor, partial curve]

**Q.** Which Potency does the source give for O=C(NCC1CCCO1)C(=O)N/N=C/c1ccccc1C(=O)O (stereo not given) here?
**A.** inactive

**Q.** With O=C(Cc1ccc(-n2cccc2)cc1)N1CCc2ccccc21 as the compound, how does the Potency read?
**A.** inconclusive: 4.47 µM [inhibitor, partial curve, poor fit]

**Q.** For O=C(O)CCCNc1cc(N2CCN(C(=O)c3ccco3)CC2)c2noc3c2c1C(=O)c1ccccc1-3, which Potency is on record?
**A.** active: 17.8 µM

**Q.** How did the Potency turn out when Cc1ccc(S(=O)(=O)N2CCC(C(=O)N[C@@H](C)C(=O)Nc3ccc(F)cc3)CC2)cc1 was run?
**A.** inconclusive: 79.4 µM [inhibitor, single point]

**Q.** How did the Potency turn out when O=C(CSc1nc(-c2ccccc2)c(-c2ccccc2)[nH]1)NCCN1C(=O)CSC1=O was run?
**A.** inconclusive: 79.4 µM [inhibitor, single point]

**Q.** For Clc1ccccc1Cn1c(/C=C/c2ccco2)nc2ccccc21, which Potency is on record?
**A.** inconclusive: 44.7 µM [inhibitor, partial curve]

**Q.** Which Potency does the source give for Cc1cc(C)nc(N/N=C/c2ccco2)n1 here?
**A.** inactive

**Q.** O=C(Oc1ccc(/C=N/NC(=O)c2ccccc2O)cc1)c1ccccc1 was tested. Which Potency did it give?
**A.** inconclusive: 89.1 µM [inhibitor, single point]

**Q.** With CCCNC(=O)c1cn(CC)c2cc(N3CCN(C(=O)c4ccco4)CC3)c(F)cc2c1=O as the compound, how does the Potency read?
**A.** inconclusive: 79.4 µM [inhibitor, single point]

**Q.** With CCOc1cccc2sc(N(Cc3cccnc3)C(=O)c3ccc(C#N)cc3)nc12 as the compound, how does the Potency read?
**A.** inconclusive: 89.1 µM [inhibitor, single point]

**Q.** Which Potency does the source give for COCCNC(=O)Nc1ccc2nc(-c3ccco3)c(-c3ccco3)nc2c1 here?
**A.** active: 5.62 µM

**Q.** How did the Potency turn out when COc1cc([N+](=O)[O-])ccc1NC(=S)Nn1cnnc1 was run?
**A.** inconclusive: 50.1 µM [inhibitor, partial curve]

**Q.** For Cc1oc2c(Cl)c(Cl)c(O)c(CN(C)C)c2c1C(=O)c1ccc(Cl)cc1, which Potency is on record?
**A.** active: 44.7 µM

**Q.** O=C(CCCn1c(=O)c2cccn2c2ccccc21)NCCc1ccc(Cl)cc1 was tested. Which Potency did it give?
**A.** inconclusive: 50.1 µM [inhibitor, partial curve]

**Q.** For COc1cc(/C=C2/C(=N)N3N=C(CC(=O)N4CCOCC4)SC3=NC2=O)ccc1OCc1ccccc1F, which Potency is on record?
**A.** inconclusive: 44.7 µM [inhibitor, partial curve]

**Q.** How did the Potency turn out when CC1(C(=O)N2CCN(Cc3ccccc3Cl)CC2)CC1(Cl)Cl (stereo not given) was run?
**A.** inactive

**Q.** With Cc1ccc(S(=O)(=O)NC(=O)NN2CC3CCCC3C2)cc1 (stereo not given) as the compound, how does the Potency read?
**A.** inconclusive: 79.4 µM [inhibitor, single point]

**Q.** For Cc1n[nH]c(=S)n(NC(=O)CC(=O)Nn2c(=S)[nH]nc(C)c2=O)c1=O, which Potency is on record?
**A.** active: 39.8 µM

**Q.** For Oc1cc(Br)ccc1C=Nc1ccc(N2CCCCC2)cc1, which Potency is on record?
**A.** inconclusive: 35.5 µM [inhibitor, partial curve]

**Q.** For Cc1cc(NC(=O)CSc2nnc(-c3ccc(O)cc3)o2)no1, which Potency is on record?
**A.** inactive

**Q.** How did the Potency turn out when CCOc1ccc2[nH]cc(S(=O)(=O)c3ccc(Cl)cc3)c(=O)c2c1 was run?
**A.** inconclusive: 89.1 µM [inhibitor, single point]

**Q.** With COc1ccccc1CC(=O)Nc1ccc(OC)c(OC)c1 as the compound, how does the Potency read?
**A.** inactive

**Q.** COC(=O)c1cc(-c2ccc(C)cc2)c2c(=O)n(C)c(=O)n(C)c2n1 was tested. Which Potency did it give?
**A.** inactive

**Q.** How did the Potency turn out when O=C1c2cccc3cccc(c23)C(=O)N1c1ccc(O)cc1 was run?
**A.** active: 79.4 µM

**Q.** With CC(C)(C)OC(=O)NNC(=S)NC1CCCCC1 as the compound, how does the Potency read?
**A.** inactive

**Q.** How did the Potency turn out when CSc1ccc(C2Nc3cccc4cccc(c34)N2)cc1 was run?
**A.** active: 50.1 µM

**Q.** With CCOc1ccc(NC(=O)CN(C)C(=O)c2ccc(N3CCCC3)c([N+](=O)[O-])c2)cc1OCC as the compound, how does the Potency read?
**A.** inconclusive: 89.1 µM [inhibitor, single point]

**Q.** Cc1nc(NC(=O)c2ccccc2)sc1-c1csc(NCCc2ccccc2)n1 was tested. Which Potency did it give?
**A.** inconclusive: 31.6 µM [inhibitor, partial curve]

**Q.** How did the Potency turn out when CCOC(=O)C1CCCN(Cc2cn3c(-c4cccc(Br)c4)nnc3s2)C1 (stereo not given) was run?
**A.** inconclusive: 89.1 µM [inhibitor, single point]

**Q.** With CCOC(=O)N1CCN(C(=S)Nc2ccc(C)cc2C)CC1 as the compound, how does the Potency read?
**A.** inconclusive: 89.1 µM [inhibitor, single point]

**Q.** Which Potency does the source give for CC(=O)c1ccc(N2C(=O)C3C(C2=O)C(C(=O)c2ccc(Cl)cc2)N2CCCC32)cc1 (stereo not given) here?
**A.** inconclusive: 50.1 µM [inhibitor, partial curve]

**Q.** COc1cccc(NC(=O)N2CCN(c3cccc(C)c3)C(C)C2)c1 (stereo not given) was tested. Which Potency did it give?
**A.** inconclusive: 89.1 µM [inhibitor, partial curve, poor fit]

**Q.** Which Potency does the source give for COC(=O)CSCc1nc2ccccc2[nH]c1=O here?
**A.** inactive

**Q.** O=C(Nc1ccc(N=Nc2ccccc2)cc1)c1ccc(Cl)cc1Cl was tested. Which Potency did it give?
**A.** inconclusive: 89.1 µM [inhibitor, single point]

**Q.** With CCCC(CCC)C(=O)Nc1cccc(-c2cn3c(n2)SCC3)c1 as the compound, how does the Potency read?
**A.** inconclusive: 25.1 µM [inhibitor, full curve]

**Q.** With O=C(Nc1ccc(Cl)cc1)C(NS(=O)(=O)c1cccs1)c1ccccc1 (stereo not given) as the compound, how does the Potency read?
**A.** inactive

**Q.** How did the Potency turn out when Cc1sc(-n2c(C)ccc2C)c(C#N)c1C was run?
**A.** inactive

**Q.** Which Potency does the source give for CC(=O)c1c(C)oc2c1cc(NS(=O)(=O)c1ccc(Cl)c(C)c1)c1ccccc12 here?
**A.** inactive

**Q.** Which Potency does the source give for CCNc1c([N+](=O)[O-])c(=O)n(CC)c2ccccc12 here?
**A.** inactive

**Q.** O=C(Nc1ccc(S(=O)(=O)N2CCOCC2)cc1)c1cccc([N+](=O)[O-])c1 was tested. Which Potency did it give?
**A.** inactive

**Q.** For O=C(CCCCCn1c(=O)[nH]c2ccccc2c1=O)N1CCN(Cc2ccc3c(c2)OCO3)CC1, which Potency is on record?
**A.** inactive

**Q.** With Cc1nnc(NC(=O)CSc2nnc3scc(-c4ccc(C)c(C)c4)n23)s1 as the compound, how does the Potency read?
**A.** inconclusive: 89.1 µM [inhibitor, single point]

**Q.** With Cc1cccc(N2CCN(C(=O)CS(=O)(=O)Cc3nc(-c4ccccc4C)oc3C)CC2C)c1 (stereo not given) as the compound, how does the Potency read?
**A.** inconclusive: 22.4 µM [inhibitor, full curve]

**Q.** Cc1ccc(NC2=NCC(=O)N2Cc2ccccc2)c(C)c1 was tested. Which Potency did it give?
**A.** inactive

**Q.** How did the Potency turn out when O=C(/C=C/c1ccc(S(=O)(=O)NCc2ccco2)cc1)N1CCN(c2ccccc2)CC1 was run?
**A.** inconclusive: 25.1 µM [inhibitor, full curve]

**Q.** How did the Potency turn out when O=[N+]([O-])c1ccc(-c2cn3c(n2)CCC3)cc1 was run?
**A.** inconclusive: 89.1 µM [inhibitor, single point]

**Q.** How did the Potency turn out when COc1cc(NC(C)=O)c2ncccc2c1NC(C)=O was run?
**A.** inactive

**Q.** CCSc1cnc(-c2ccccc2)n1CC was tested. Which Potency did it give?
**A.** inconclusive: 89.1 µM [inhibitor, single point]

**Q.** For COc1cc(NC2c3ccccc3C(=O)N2Cc2ccccc2)cc(OC)c1OC (stereo not given), which Potency is on record?
**A.** inconclusive: 35.5 µM [inhibitor, partial curve]

**Q.** Which Potency does the source give for CCCCCc1cc(=O)oc2c(C(CCN3CCCC(C)C3)c3ccc4c(c3)OCO4)c(OC)cc(OC)c12 (stereo not given) here?
**A.** active: 31.6 µM
